# Experimental data: article PMC4336329 (PLoS ONE, 2015)
# The campaign covered roughly 310,000 compounds. About 2,200 (0.71%) showed an effect of 50% or more. Effects have a minus sign here. This is one part of the list.
# Biological target: human ether-à-go-go-related gene (hERG) potassium channel (human, UniProt Q12809)
# Experiment: primary screen, population patch clamp on CHO cells stably expressing hERG
# human ether-à-go-go-related gene (hERG) potassium channel, sequence (Q12809 whole entry, looked up): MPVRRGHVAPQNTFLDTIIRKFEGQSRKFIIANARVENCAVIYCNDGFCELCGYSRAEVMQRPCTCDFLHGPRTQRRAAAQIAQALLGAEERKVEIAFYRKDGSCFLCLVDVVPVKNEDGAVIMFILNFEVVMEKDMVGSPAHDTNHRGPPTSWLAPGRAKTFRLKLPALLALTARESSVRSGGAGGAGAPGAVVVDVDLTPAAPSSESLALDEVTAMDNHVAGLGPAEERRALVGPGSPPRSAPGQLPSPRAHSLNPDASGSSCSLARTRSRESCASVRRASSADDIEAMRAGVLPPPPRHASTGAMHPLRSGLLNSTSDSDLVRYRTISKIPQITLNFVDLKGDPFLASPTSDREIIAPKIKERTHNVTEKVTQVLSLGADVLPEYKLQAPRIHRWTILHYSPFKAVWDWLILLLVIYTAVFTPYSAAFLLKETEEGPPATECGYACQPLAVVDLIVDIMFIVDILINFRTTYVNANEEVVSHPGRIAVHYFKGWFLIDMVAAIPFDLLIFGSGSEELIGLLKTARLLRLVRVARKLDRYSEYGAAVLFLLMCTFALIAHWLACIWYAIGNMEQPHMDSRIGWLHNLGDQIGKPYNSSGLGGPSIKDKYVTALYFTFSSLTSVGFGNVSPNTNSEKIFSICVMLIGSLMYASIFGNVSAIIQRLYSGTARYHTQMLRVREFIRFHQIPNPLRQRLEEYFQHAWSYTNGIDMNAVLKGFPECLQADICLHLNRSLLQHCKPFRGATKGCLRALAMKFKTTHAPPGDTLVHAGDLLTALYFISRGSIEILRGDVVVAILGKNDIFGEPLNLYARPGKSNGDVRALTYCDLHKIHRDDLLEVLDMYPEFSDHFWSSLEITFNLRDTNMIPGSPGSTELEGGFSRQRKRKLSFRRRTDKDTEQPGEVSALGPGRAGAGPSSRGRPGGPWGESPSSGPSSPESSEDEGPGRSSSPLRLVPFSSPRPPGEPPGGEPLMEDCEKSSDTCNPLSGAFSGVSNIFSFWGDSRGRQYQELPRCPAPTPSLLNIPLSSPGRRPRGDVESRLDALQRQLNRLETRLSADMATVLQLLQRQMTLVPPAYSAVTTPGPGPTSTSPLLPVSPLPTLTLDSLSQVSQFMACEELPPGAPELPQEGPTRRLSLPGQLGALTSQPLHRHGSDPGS
row,Compound,"hERG current change (%, negative = inhibition) at 1uM"
1,COc1cccc(NC(=O)CCCCCn2nnc3ccccc3c2=O)c1,4.8%
2,COC(=O)CCCC1=CC2=CC(=O)C(C)(OC(=O)c3cccs3)C(=O)C2=CN1c1ccccc1 (stereo not drawn),6.11%
3,CSC1=NCCN1C(=O)c1cccc(C(F)(F)F)c1,11.1%
4,CCCCCC(=O)Nc1cccc(C2=NOC3(C2)C[C@H](C(N)=O)N(C(=O)COc2ccc(Cl)cc2)C3)c1 (stereo partly drawn),6.06%
5,COC(=O)c1c(NC(=O)C(C)C)sc2c1C(C(=O)OC)CC2 (stereo not drawn),19.5%
6,COc1ccc(N2CC(C(=O)N[C@H](C(=O)NC3CCCC3)C(C)C)CC2=O)cc1 (stereo partly drawn),13.8%
7,C=CCNC(=O)NC(=O)CN1C(=O)NC(c2ccccc2)(c2ccccc2)C1=O,-26.1%
8,O=C(CC(=O)N/N=C/c1ccc(F)cc1)N/N=C/c1ccc(F)cc1,12.3%
9,CNC(=O)c1sc(-c2cccs2)nc1C,15.2%
10,CC(NC(=O)CCn1c(=S)[nH]c2ccsc2c1=O)c1ccccc1 (stereo not drawn),5.54%
11,O=c1[nH]cc(C(F)(F)F)cc1NS(=O)(=O)c1ccc([N+](=O)[O-])cc1,-5.38%
12,CCOc1ccccc1N1CC(C(=O)N2CCOCC2)CC1=O (stereo not drawn),10.7%
13,COc1ccc(/C=C/CN2CCC(n3nccc3NC(=O)C3CCCC3)CC2)cc1,-92.1%
14,Cn1c(=O)[nH]c(=O)c2c1nc(N1CCCCCC1)n2CCOc1ccccc1,1.03%
15,CCn1nnc(NC(=O)c2c(OC)cccc2OC)n1,15%
16,CSC1=NCCN1C(=O)c1ccc(S(=O)(=O)N2CCCCC2)cc1,11.2%
17,C=CCOc1cccc(/C=N/NC(=O)CN(c2cc(Cl)ccc2OC)S(=O)(=O)c2ccc(C)c([N+](=O)[O-])c2)c1,18.4%
18,Cc1ccc(Nc2cc(=O)[nH]c(=O)[nH]2)cc1C,6.08%
19,N#C/C(=C\c1cn(CCOc2ccccc2)c2ccccc12)C(=O)NCc1ccco1,4.03%
20,Cc1cccc(NC(=O)/C(C#N)=C/c2ccc(Sc3ccccc3)o2)c1C,8.67%
21,CCNC(=O)N1CCCC(C(=O)c2ccc3cc(OC)ccc3c2)C1 (stereo not drawn),4.69%
22,CCOc1ccc(C(CCc2ccccc2)NC(=O)c2ccccc2F)cc1OCC (stereo not drawn),11.8%
23,CCOC(=O)C1C(=O)C=C(N2CCOCC2)CC1c1cccc(OC)c1 (stereo not drawn),18.3%

row,Compound,"hERG current change (%, negative = inhibition) at 1uM"
1,c1ccc(C(c2ccccc2)N2CCN(C(c3ccccn3)c3nnnn3C3CCCC3)CC2)cc1 (stereo not drawn),8.57%
2,CCCCSc1n[nH]c(N)n1,14.6%
3,COc1cc2ccccc2cc1C(=O)N1CCCCC1,1.3%
4,Cc1cc(=O)cc(C)n1-c1ccc(F)cc1F,7.28%
5,Cc1ccc(/C=C2\SC(=S)N(CCCC(=O)Nc3ccc(O)cc3)C2=O)cc1,8.87%
6,Cc1ccc(-c2cc(C(F)(F)F)c(C#N)c(SCCC#N)n2)o1,5.56%
7,COc1ccc(Nc2nc(N)nc(CSC(=S)N3CCOCC3)n2)cc1,8.62%
8,CC(=O)Oc1cccc(NC(=O)c2ccc3c(c2)C(=O)N(CC(C)C)C3=O)c1,7.53%
9,CN(Cc1cnn(C)c1)C(=O)c1cc(COc2c(F)cccc2F)on1,14.7%
10,CCOC(=S)SCC(=O)Nc1nc(C)c(C)s1,2.1%
11,O=C(Cc1ccc(Cl)cc1)Nc1ccc(N2CCCC2)cc1,8.92%
12,OCCCNc1ncnc2c1[nH]c1ccccc12,14.4%
13,CCCCCNC(=O)c1cccc(S(=O)(=O)N2CC3(C)CC2CC(C)(C)C3)c1 (stereo not drawn),10.6%
14,CC1(C)CC(=O)C(C=NCCc2ccc(O)cc2)=C(O)C1,10.2%
15,Cc1cc(=O)oc2cc(OCC(=O)N3CC[C@@]4(O)CCCC[C@H]4C3)ccc12,9.62%
16,CCOc1ccc(N=C2SCCCN2C(=O)c2c(CC)noc2C)cc1,8.16%
17,Cc1oc(S(=O)(=O)N2CCCCC2)cc1NC(=O)Nc1ccc(Cl)cc1,1.55%
18,COc1ccc(NC(=O)CCN2C(=O)/C(=C/c3ccc4c(c3)OCO4)SC2=S)cc1,5.41%
19,COc1ccccc1C(=O)Nc1ccnn1C1CCN(C(=O)c2cnsn2)CC1,-23.8%
20,CC(=O)c1c(C)[nH]c(C(=O)OCC(=O)NCCC(C)C)c1C,1.69%
21,CCN(CC)S(=O)(=O)c1ccc(-c2nnc(SCC(=O)N3c4ccccc4CC3C)o2)cc1 (stereo not drawn),8.5%
22,Cc1ccc(/C=N/NC(=O)C2COc3ccccc3O2)s1 (stereo not drawn),18%
